# Experimental data reported in article PMC4336329 (PLoS ONE, 2015).
# Out of some 310,000 compounds screened, about 14,000 (4.5%) showed an effect of 50% or more. Effects have a minus sign here. Some of the results follow.
# Target: human ether-à-go-go-related gene (hERG) potassium channel (human, UniProt Q12809)
# Assay: primary screen, population patch clamp on CHO cells stably expressing hERG
# 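Also: peak tail current of the secondary pulse compared with the same well before compound.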
# human ether-à-go-go-related gene (hERG) potassium channel, sequence (Q12809 whole entry, looked up): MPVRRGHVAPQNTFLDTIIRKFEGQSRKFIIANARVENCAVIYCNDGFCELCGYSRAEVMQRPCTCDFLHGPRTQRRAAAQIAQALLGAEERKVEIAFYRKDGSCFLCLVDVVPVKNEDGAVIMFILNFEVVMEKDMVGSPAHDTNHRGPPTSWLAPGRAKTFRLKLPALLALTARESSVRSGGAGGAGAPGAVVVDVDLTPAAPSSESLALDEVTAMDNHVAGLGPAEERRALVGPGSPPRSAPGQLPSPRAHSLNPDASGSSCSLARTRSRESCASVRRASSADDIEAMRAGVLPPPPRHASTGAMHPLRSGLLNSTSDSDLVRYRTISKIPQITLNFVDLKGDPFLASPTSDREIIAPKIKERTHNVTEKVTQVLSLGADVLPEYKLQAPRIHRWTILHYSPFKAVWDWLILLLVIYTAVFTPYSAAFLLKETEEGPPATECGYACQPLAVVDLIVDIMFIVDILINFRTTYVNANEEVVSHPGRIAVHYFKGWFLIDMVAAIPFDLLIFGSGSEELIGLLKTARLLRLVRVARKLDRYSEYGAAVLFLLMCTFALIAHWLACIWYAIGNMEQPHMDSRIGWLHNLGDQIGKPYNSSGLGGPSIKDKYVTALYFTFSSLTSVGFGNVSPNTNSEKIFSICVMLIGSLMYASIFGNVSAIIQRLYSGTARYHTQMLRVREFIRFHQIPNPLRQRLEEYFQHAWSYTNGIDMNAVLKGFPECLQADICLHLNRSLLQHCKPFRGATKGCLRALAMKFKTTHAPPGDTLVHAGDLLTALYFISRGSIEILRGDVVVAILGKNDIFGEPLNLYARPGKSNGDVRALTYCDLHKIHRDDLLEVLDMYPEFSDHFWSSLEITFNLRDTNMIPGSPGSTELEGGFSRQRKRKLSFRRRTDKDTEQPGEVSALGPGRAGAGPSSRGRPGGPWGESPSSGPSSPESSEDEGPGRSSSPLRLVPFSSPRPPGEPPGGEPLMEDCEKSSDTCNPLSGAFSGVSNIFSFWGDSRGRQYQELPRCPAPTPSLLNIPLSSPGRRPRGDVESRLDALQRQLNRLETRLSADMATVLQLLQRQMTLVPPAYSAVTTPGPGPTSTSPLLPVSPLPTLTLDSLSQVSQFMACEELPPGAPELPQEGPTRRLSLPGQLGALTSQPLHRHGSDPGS
row,SMILES,"hERG current change (%, negative = inhibition) at 10uM [%]"
1,O=C(NC1CCCCC1)NC1C2CC3CC(C2)CC1C3 (stereo not shown),-6.14
2,CC(Cc1n[nH]c(=S)o1)c1ccccc1 (stereo not shown),20.7
3,CC(=O)N(C(C)=O)C1=C(C#N)C2(CCCCC2)Cc2ccccc21,2.51
4,CN(CC(=O)O)S(=O)(=O)c1cccs1,4.48
5,CCCn1cnc2c(=S)nc(N)[nH]c21,16.3
6,CC(=O)N1CCN(CC(=O)Nc2ccccc2Sc2ccc(Cl)cc2)CC1,-78
7,O=C(c1ccc(CNS(=O)(=O)c2ccc(Br)cc2)cc1)N1CCCCCC1,-21.6
8,Cc1ccc(S(=O)(=O)N2CCN(C(C)C)CC2)cc1,19.3
9,Cl.Fc1ccc(C(OCCN2CCCC2)c2ccc(Br)cc2)cc1 (stereo not shown),-75.8
10,CCc1cccc(N=c2c([N+](=O)[O-])nn(-c3ccc(Cl)cc3)n2O)c1,-0.994
11,CCN(CC)S(=O)(=O)c1ccc(N2CCCC2)c(C(=O)Nc2ccc(OC)c(Cl)c2)c1,18.2
12,CCOC(=O)c1sc(C)c2c1NC1(CCCCCC1)NC2=O,5
13,CN(C)CCCNC(=S)NCc1ccc(Cl)cc1,-26
14,CC(=O)Nc1ccc(/C=N/NC(=O)c2cc3cc(C)ccc3nc2C)cc1,-2.49
15,O=C(CN(Cc1ccc2c(c1)OCO2)C(=O)CNC(=O)c1ccco1)NC1CCCCC1,-7.83
16,Cc1nnc(SCSc2nnc(C)s2)s1,6.64
17,Cn1c(=O)nc2n(Cc3ccccc3)c3cccc(Cl)c3cc-2c1=O,-4.14
18,CC(C)(C)c1ccc(/C=N/NC(=O)c2ccccn2)cc1,-4.68
19,O=C(Nc1ccc(F)cc1)c1cccc(C(=O)Nc2ccc(F)cc2)c1,-28.4
20,COc1ccc(C)c2sc(NC(=O)c3cccc(N4C(=O)CCC4=O)c3)nc12,-27.9
21,NC(=O)CN1CCCC1c1ccc2c(c1)OCCO2 (stereo not shown),19.6
22,C#CCNC(=O)C1=C[C@H](C2CC2)C[C@H](OCCCCO)O1,1.01
23,Cc1ccc(CSC2=NCCN2C(=O)c2ccc(S(=O)(=O)N(C)C)cc2)cc1,13.6

row,SMILES,"hERG current change (%, negative = inhibition) at 10uM [%]"
1,CN(C)c1ccc(C(=O)OCC(=O)NC2CCCCCC2)cc1,-3.05
2,Cc1nc2ccc(NC(=O)COc3cccc(F)c3)cc2s1,42.6
3,CN(C)c1ccc(/C=N/OC(=O)Nc2ccccc2)cc1,-2.98
4,O=C(O)CCc1ccc(-c2cccs2)n1CCc1ccccc1,2
5,O=C(COc1ccc(Cl)cc1)Nc1cnn(Cc2c(Cl)cccc2Cl)c1,22
6,COc1ccc(N2CCN(C(C)C(=O)Nc3nnc(C)s3)CC2)cc1.Cl (stereo not shown),-1.41
7,CC(=O)NC(N(C#N)c1nc(Cl)nc(N(C)C)n1)C(Cl)(Cl)Cl (stereo not shown),13.1
8,Cc1ccc(OCc2nc(-c3ccccn3)n[nH]2)cc1,-15.7
9,NC(=O)NC(CC(=O)Nc1cccnc1)c1cccc(Br)c1 (stereo not shown),12
10,CCCCCCn1c(=O)c(Cc2ccccc2)c(O)c2ccccc21,4.61
11,COc1ccc(CN2CCN(C(=O)c3cccc4ccccc34)CC2)c(OC)c1OC.O=C(O)C(=O)O,11.9
12,COc1ccc(C(=O)NC2CCN(CC(=O)Nc3cccc(OC)c3)CC2)cc1,-25.4
13,COc1ccccc1NC(=S)N1CCC(NC(=O)c2ccco2)CC1,10.6
14,COc1cccc(/C=N/NC(=O)CNC(=O)c2ccc3c(c2)OCCO3)c1O,-0.701
15,Cc1ccc(OC/C(=N\O)C(C)(C)C)c([N+](=O)[O-])c1,-15.2
16,O=C(Nc1ccc(Cl)cc1)c1ccc(-c2ccccn2)s1,14.8
17,CC(C)CN(CCCNC(=O)CN1C(=O)CSc2ccc(S(=O)(=O)N3CCOCC3)cc21)CC(C)C,2.98
18,CCCCN(C)CCCNC(=O)c1cc(-c2cccnc2)nc2ccccc12,-60.1
19,CCOc1ccc(CNCc2cccnc2)cc1,-22.4
20,COc1ccc(-c2nc(SCC(=O)N3CCOCC3)n[nH]2)cc1,-4.25
21,COc1ccccc1C1/C(=C(\O)c2ccc3c(c2)OCCO3)C(=O)C(=O)N1Cc1cccnc1 (stereo not shown),18.9
22,O=C(Nc1ccc(Br)cc1)c1csc(-c2ccncc2)n1,-9.16
23,Cc1ccc(CSCc2nnc(SCC(=O)N3CCN(c4ccccc4)CC3)n2C)cc1,-54

row,SMILES,"hERG current change (%, negative = inhibition) at 10uM [%]"
1,CCn1c2ccccc2c2cc(NC(=S)N3CCOCC3)ccc21,4.55
2,O=c1cc(-c2ccc([N+](=O)[O-])cc2)nc2cc(-c3ccc(F)cc3)[nH]n12,4.49
3,CC(C)c1ccc(-c2nn(-c3ccccc3)cc2C(=O)NCC2CCCO2)cc1 (stereo not shown),-1.18
4,CC(C)C(NS(=O)(=O)c1ccc2c(c1)oc(=O)n2C)C(=O)N1CCN(c2ccccc2F)CC1 (stereo not shown),-8.09
5,CCOC(=O)C(Cc1ccccc1)NC(=O)CCC(=O)c1ccc(OC)cc1 (stereo not shown),-0.95
6,Cc1ccc2c(c1)NC(=O)c1cccc([N+](=O)[O-])c1CO2,11.2
7,CCC(=O)N1CCCC(C(=O)c2ccc(-c3ccccc3)cc2)C1 (stereo not shown),-19
8,CCCn1nc(C(=O)OCn2nnc3ccccc3c2=O)c2ccccc2c1=O,8.96
9,CN1CCN(CCCNC(=O)c2ccc3c(Cl)c4c(nc3c2)CCCC4)CC1,-6.81
10,CCCCCCc1ccc(OC(=O)c2ccncc2)cc1,20.4
11,Nc1nnc(CCN2CCCCC2)s1,4.42
12,COc1ccc(N2C(=O)CC3(CCCC3)CC2=O)cc1,8.21
13,CCc1ccc(N/C(SCc2ccccc2C)=C(/C#N)C(=O)NCc2ccco2)cc1,0.16
14,Cc1cc(/C=C2/C(=O)N(C)C(=S)N2C)ccc1N1CCCC1,7.27
15,O=C(Nc1ccnn1C1CCN(C/C=C/c2ccccc2)CC1)c1cccc(F)c1,-70.9
16,Cc1ccc(NS(=O)(=O)c2ccc(C(=O)N3CCCCCC3)cc2)cc1,-8.38
17,COc1ccc(C(=O)NCCNC(=O)c2cnccn2)cc1,11.8
18,COC(=O)Cc1ccc(NC(=S)N2CCN(c3ccccn3)CC2)cc1,10.2
19,O=C(NC1CCCc2c1cnn2-c1cc(F)cc(F)c1)c1ccncc1 (stereo not shown),-64.1
20,CCOc1ccc(NC(=O)NC2(C(=O)NCc3ccco3)CCCCC2)cc1,15.8
21,CC1(C)NS(=O)(=O)Oc2ccccc21,18.3
22,Cl.NCCNc1ccc([N+](=O)[O-])cc1,-6.16
23,C=C1CCN(CC(=O)OC)S(=O)(=O)c2ccccc21,4.26

row,SMILES,"hERG current change (%, negative = inhibition) at 10uM [%]"
1,CCCc1nnc(NC(=O)CCC(=O)N2CCC3(CC2)OCCO3)s1,24.6
2,COc1ccc(-c2nc(N)nc(C)c2-c2ccc(Cl)cc2)c(O)c1,18.4
3,CC1CC1C(=O)Nc1ccc(-c2ccccc2)cc1 (stereo not shown),-4.57
4,COc1ccc(-c2nc3ccccc3c(=O)n2CCCN2CCOCC2)cc1,6.17
5,Cc1ccc(C(=O)NCCCn2ccnc2)o1,26.4
6,Cc1cc(OCC(=O)c2cccc(C(F)(F)F)c2)n2cnnc2n1,-28.9
7,COc1ccccc1N1CCN(C2CCN(C(=O)c3cccs3)CC2)CC1,-38.2
8,COc1ccc(C2/C=C\CN(CC(C)(C)C)CC(=O)N2Cc2ccc(F)cc2)cc1 (stereo not shown),0.258
9,COc1cccc(NC(=O)CCc2nc(-c3cccs3)no2)c1,0.12
10,Cc1c(N=C2NN=C(c3c[nH]c4ccccc34)CS2)c(=O)n(-c2ccccc2)n1C,6.94
11,CCOC1=NN(c2ncc(C(F)(F)F)cc2Cl)C(=O)C1,12.1
12,N#Cc1c(-c2ccccc2)ccn(Cc2ccccc2Cl)c1=O,-11
13,Cc1ccccc1OC1C(=O)N(CC2CCCO2)C1c1ccc2c(c1)OCO2 (stereo not shown),-55.8
14,COC(=O)CC1C(=O)NCCN1C(=S)Nc1cccc(C(F)(F)F)c1 (stereo not shown),21.4
15,CCN(CC)C(=O)c1ccccc1NC(=O)c1cccc(S(=O)(=O)N(CC)CC)c1,-9.51
16,CSc1ccc(CNC2CC2)cc1.Cl,-7.3
17,C=C1C[C@H](O)[C@@H]2[C@H](OC(=O)[C@H]2C)[C@H]2[C@H](C)[C@@H](O)C[C@@H]12,17.2
18,FC(F)(F)c1cccc(N2CCN(c3ccc4nnc(-c5ccccc5)n4n3)CC2)c1,-4.4
19,CCOCCOCCC(C(=O)O)P(=O)(c1ccccc1)c1ccccc1 (stereo not shown),-8.84
20,CCCn1cnc2cc(NCc3cccs3)ccc21,-10.9
21,CCOc1ccc(CCNC(=O)c2cccc3c2C(=O)N(CCOC)C3)cc1OCC,-16.9
22,COc1ccc(S(=O)(=O)N(CC(=O)N/N=C/c2cccs2)c2cc(C)cc(C)c2)cc1OC,-22.2
